{"source": "paper PMC7819943", "about": "“Rice protein-binding microarrays: a tool to detect cis-acting elements near promoter regions in rice”", "note": "The other results are listed elsewhere or left out."}
{"molecular_target": "T1, OsWOX13 (Oryza sativa, UniProt Q5QMM3 1-267)", "T1 sequence": "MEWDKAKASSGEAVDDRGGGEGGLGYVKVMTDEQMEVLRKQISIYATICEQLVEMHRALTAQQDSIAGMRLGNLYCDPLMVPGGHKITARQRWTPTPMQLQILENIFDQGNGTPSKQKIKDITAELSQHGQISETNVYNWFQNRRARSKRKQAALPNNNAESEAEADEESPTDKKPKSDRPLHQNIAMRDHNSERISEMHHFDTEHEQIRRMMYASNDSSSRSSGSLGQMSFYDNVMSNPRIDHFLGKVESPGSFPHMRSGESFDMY", "experiment": "protein-binding microarray (RPBM); PBS, 2% BSA, 51.3 ng/ul salmon testes DNA, 50 uM zinc acetate, 200 nM TF, 25 C, 1 h; high values mean tight binding", "details": "protein: recombinant; tags: N-terminal polyhistidine and DsRed monomer fusion (pET32a); label: CyDye5-dUTP incorporated in the synthesized complementary strand; 3' TTTTT single-stranded linker to array surface; dsDNA, one strand shown", "how_it_was_run": "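The binding signal for each feature is its fluorescence intensity in arbitrary units. An Axon 4000B scanner was used to read a custom Agilent array that had been made double-stranded with Cy5-dUTP primer extension, blocked with 2% BSA, incubated at 25 °C for 1 h with 200 nM protein in PBS, 2% BSA, salmon testes DNA and 50 µM zinc acetate, and washed. The protein was an N-terminal polyhistidine–DsRed transcription factor fusion from E. coli BL21-CodonPlus, purified on Ni–NTA.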"}
{"sequence": "GCTCAACTGGGATAGATAGATGGATGAATGGATGTCCTACCGGAGTCACCTAGTGCAG", "binding signal": "6430 fluorescence intensity (a.u.)"}
{"sequence": "TTTGGCTCTGATTGTTTTCTTGTACAGTTTGCTTAAACTCCGGAGTCACCTAGTGCAG", "binding signal": "11400 fluorescence intensity (a.u.)"}
{"sequence": "ATATATATATATATATATATATATATATATTCATAAATTACGGAGTCACCTAGTGCAG", "binding signal": "3450 fluorescence intensity (a.u.)"}
{"sequence": "AATAGATTATTAGGACAAAATTTGTTGAATATATGAAGTCCGGAGTCACCTAGTGCAG", "binding signal": "17300 fluorescence intensity (a.u.)"}
{"sequence": "TCTTTTCGAAAATGTTATTCAATCATTAATGACTAATAACCGGAGTCACCTAGTGCAG", "binding signal": "7540 fluorescence intensity (a.u.)"}
{"sequence": "TTCTAAATTGTATTTCTATATGGACTCTGCCTTTTCTTTTCGGAGTCACCTAGTGCAG", "binding signal": "5800 fluorescence intensity (a.u.)"}
{"sequence": "ACTTAATTGGAAGGCCTGATGAGAGACACAAACAGTTGGCCGGAGTCACCTAGTGCAG", "binding signal": "39600 fluorescence intensity (a.u.)"}
{"sequence": "ATGTCATTATCATGATTATGTGTAGTTGTCAACAAAACTTCGGAGTCACCTAGTGCAG", "binding signal": "7260 fluorescence intensity (a.u.)"}
{"sequence": "GAAAACTCAATTCTAGATTTGAATCTGACACACAATTGAGCGGAGTCACCTAGTGCAG", "binding signal": "4220 fluorescence intensity (a.u.)"}
{"sequence": "TGCACTTTACTCTATTTTGATTTAGATTATGACAATATGTCGGAGTCACCTAGTGCAG", "binding signal": "4910 fluorescence intensity (a.u.)"}
{"sequence": "ACTGATTACTCAACTATACTTATCGCATAAAGATATCCTTCGGAGTCACCTAGTGCAG", "binding signal": "24800 fluorescence intensity (a.u.)"}
{"sequence": "GCTTTCGTGATTACGACTTACCGTCGTGCTGCGCCCTTCACGGAGTCACCTAGTGCAG", "binding signal": "10200 fluorescence intensity (a.u.)"}
{"sequence": "TTGCTTTGATTACTATACCATTCTCCAATATTCCTCATAACGGAGTCACCTAGTGCAG", "binding signal": "13200 fluorescence intensity (a.u.)"}
{"sequence": "TTTAATTAATATTTTCATTCTAGACCAAACAATTTTACATCGGAGTCACCTAGTGCAG", "binding signal": "23800 fluorescence intensity (a.u.)"}
{"sequence": "TGCTTATGCATGATTGGATCTAGGATATGTGGATCAATGACGGAGTCACCTAGTGCAG", "binding signal": "11400 fluorescence intensity (a.u.)"}
{"sequence": "CATCATGAGTGACTAATTGGCCCTGCTGGCTGTGCAGACACGGAGTCACCTAGTGCAG", "binding signal": "16600 fluorescence intensity (a.u.)"}
{"sequence": "GTGATAATGTCCATCAATCTAGCAAATCATTCTCACAACGCGGAGTCACCTAGTGCAG", "binding signal": "26800 fluorescence intensity (a.u.)"}
{"sequence": "AAAACACATGATAGATAACTCTCGTACTCGTATTATTCTGCGGAGTCACCTAGTGCAG", "binding signal": "6480 fluorescence intensity (a.u.)"}
{"sequence": "TCTAAATTTTATTGGAGTGAAATTATATTTTATCCATGAGCGGAGTCACCTAGTGCAG", "binding signal": "14000 fluorescence intensity (a.u.)"}
{"sequence": "TCACAAAATTGAGACCAAGACACAAACTAACTACTGTACTCGGAGTCACCTAGTGCAG", "binding signal": "7430 fluorescence intensity (a.u.)"}
{"sequence": "TCACAACCTAGGTAATTGGAAGAATTAGCTACTATGATTCCGGAGTCACCTAGTGCAG", "binding signal": "8860 fluorescence intensity (a.u.)"}
{"sequence": "TTCGATTTAAATTATTCATGAAATGCAATTCCATTTATTACGGAGTCACCTAGTGCAG", "binding signal": "5100 fluorescence intensity (a.u.)"}
{"sequence": "TGTCACTATTGTAATTTAATATGTATTATCCTCCTCAACACGGAGTCACCTAGTGCAG", "binding signal": "4790 fluorescence intensity (a.u.)"}
{"sequence": "TTTAGATTTGACAATTAACTATTTGACACACCTATCTCAACGGAGTCACCTAGTGCAG", "binding signal": "18200 fluorescence intensity (a.u.)"}
{"sequence": "GTTGTTCCGATAATTGGACAAACCGACGAAGGCACAAATTCGGAGTCACCTAGTGCAG", "binding signal": "9210 fluorescence intensity (a.u.)"}
{"sequence": "ACAACCAATTATCACAACGTAACATTCAAAACGAGTGTAGCGGAGTCACCTAGTGCAG", "binding signal": "10100 fluorescence intensity (a.u.)"}
{"sequence": "GCAGCATTAATTGCATGATGAACATGCTTGGAATTGGTCGCGGAGTCACCTAGTGCAG", "binding signal": "23500 fluorescence intensity (a.u.)"}
{"sequence": "ACTTTCTGTCAATTAGCCATTAGGTCAGTAGCCCAAAGTCCGGAGTCACCTAGTGCAG", "binding signal": "24300 fluorescence intensity (a.u.)"}
{"sequence": "AGGAGGCAAACCCTAGATTGATTTCGCGTGTGTTGCGTGACGGAGTCACCTAGTGCAG", "binding signal": "4160 fluorescence intensity (a.u.)"}
{"sequence": "ACCTGATTTTATCCTTTCTTTGCCTCAGTAGCCAATTCTCCGGAGTCACCTAGTGCAG", "binding signal": "9990 fluorescence intensity (a.u.)"}
{"sequence": "CCACGTCAATCAAAATTACCTTCTAACCCGCCGAGGGAACCGGAGTCACCTAGTGCAG", "binding signal": "29000 fluorescence intensity (a.u.)"}
{"sequence": "CCCATCATCCGCCCATGTCCCTGATTGATTGAAATTCATTCGGAGTCACCTAGTGCAG", "binding signal": "23300 fluorescence intensity (a.u.)"}
{"sequence": "AGTTAGATTATTGCTTGATAAATCCAGCATTAGCAGGTCTCGGAGTCACCTAGTGCAG", "binding signal": "19100 fluorescence intensity (a.u.)"}
{"sequence": "CCTATGATTTGTGGGACCAAAAGATAAGAAATCATTGCATCGGAGTCACCTAGTGCAG", "binding signal": "17000 fluorescence intensity (a.u.)"}
{"sequence": "AAAATGCTAGAATGATTTATATTGTGAAACGGAGGGAGTCCGGAGTCACCTAGTGCAG", "binding signal": "4150 fluorescence intensity (a.u.)"}
{"sequence": "AATAAATCACACTAATCTGCTCTGCTTGCTGGGCCTCACACGGAGTCACCTAGTGCAG", "binding signal": "9820 fluorescence intensity (a.u.)"}
{"sequence": "GTAATTACTGCTATCAGATTTACTTGGCTGAAGAAAGGCACGGAGTCACCTAGTGCAG", "binding signal": "8680 fluorescence intensity (a.u.)"}
{"sequence": "AGCTTGATTATCTTCTCTTGATTTACTAGTATACCTTTAGCGGAGTCACCTAGTGCAG", "binding signal": "44000 fluorescence intensity (a.u.)"}
{"sequence": "CTAACAATTATCTCAACCGTTTGATTTAGATATATAGAAACGGAGTCACCTAGTGCAG", "binding signal": "13300 fluorescence intensity (a.u.)"}
{"sequence": "TTTATATAATTAGTTTTGTAAGTAATCTATATTTAATACTCGGAGTCACCTAGTGCAG", "binding signal": "5900 fluorescence intensity (a.u.)"}
{"sequence": "ATGACAGTTTCAGATAAATTAAGCTCTCATGTCAGACAGTCGGAGTCACCTAGTGCAG", "binding signal": "11300 fluorescence intensity (a.u.)"}
{"sequence": "GAAGATTGAGCTCTGCAGCAACAACCCAAACACACAAAGCCGGAGTCACCTAGTGCAG", "binding signal": "3290 fluorescence intensity (a.u.)"}
